In the supplement of paper PMC4967469:
Lines with a small IC50 respond at low doses; a limit (>, <) means that the fit lies beyond the doses tested. AUC sums up the same curve from the lowest dose to the 256-fold higher top dose: 1 means no effect, lower means more sensitive. For part of these data: Where the top dose is marked as inferred, it was calculated from the reported fits. For part of these data: An entry number marks a drug with two screens in the source, which often give different values.

Key:
Assay in all cases: Viability of human cancer cell lines after 72 h of drug (GDSC screen)
[1] = compound: CC(C)c1ccccc1Cc1cc(C(=O)Nc2ccc(S(=O)(=O)c3ccccc3C(C)(C)C)cc2)c(O)c(O)c1O [TW-37]; conditions: top dose 5 µM
Protocol: (§1)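 Human cancer cell lines in 384-well plates, medium with 10% serum, drug for 72 h over a 256-fold dose range (nine 2-fold or five 4-fold steps up to the top dose). Adherent lines were fixed and stained with the nucleic acid dye Syto60, suspension lines read with resazurin; signal relative to control wells, capped at 0 and 100%. One two-parameter sigmoid per drug and line, fitted in a mixed model over all curves with the slope shared within a line.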

[2] = compound: Nc1ccn([C@@H]2O[C@H](CO)[C@@H](O)C2(F)F)c(=O)n1 [Gemcitabine]; conditions: top dose 1.024 µM
Protocol: as §1

[3] = compound: O=S(=O)(c1ccccc1)N(CC(F)(F)F)c1ccc(C(O)(C(F)(F)F)C(F)(F)F)cc1 [T0901317]; conditions: top dose 10.24 µM; top dose inferred
Protocol: as §1

[4] = compound: Cc1ccc(Nc2cc(-c3cccc(N4C(=O)c5ccccc5C4=O)c3)ncn2)cc1NS(C)(=O)=O [KIN001-270]; conditions: top dose 20 µM; top dose inferred
Protocol: as §1

[5] = compound: C/C(O)=C(\C#N)C(=O)Nc1cc(Br)ccc1Br [LFM-A13]; conditions: top dose 16 µM; top dose inferred
Protocol: as §1

[6] = compound: CC(O)(CS(=O)(=O)c1ccc(F)cc1)C(=O)Nc1ccc(C#N)c(C(F)(F)F)c1 [Bicalutamide]; conditions: top dose inferred
Protocol: as §1

[7] = compound: S=C(NCc1ccc2c(c1)OCO2)N1CCN(c2ncnc3c2oc2ccccc23)CC1 [MP470]; conditions: top dose 20 µM; top dose inferred
Protocol: as §1

[8] = compound: CCNC(=O)c1noc(-c2cc(C(C)C)c(O)cc2O)c1-c1ccc(CN2CCOCC2)cc1 [AUY922]; conditions: top dose 0.256 µM; top dose inferred
Protocol: as §1

[9] = top dose 1.024 µM, screen: GDSC drug entry 150
[10] = top dose 10 µM, screen: GDSC drug entry 1502

Q: Which AUC [1] does the source give for “LCLC-103H (large cell lung carcinoma, adherent)” here?
A: 0.451

Q: What about the IC50 [1] of the same cell line?
A: 232 nM

Q: And the AUC [2]?
A: 0.272

Q: And the IC50 [2]?
A: 15.5 nM

Q: What about the AUC [3] of the same cell line?
A: 0.99

Q: What about the IC50 [3] of the same cell line?
A: > 10200 nM

Q: And the AUC [4]?
A: 0.973

Q: What about the IC50 [4] of the same cell line?
A: > 20000 nM

Q: What about the AUC [5] of the same cell line?
A: 0.95

Q: What about the IC50 [5] of the same cell line?
A: > 16000 nM

Q: And the AUC [6, 9]?
A: 0.99

Q: What about the IC50 [6, 9] of the same cell line?
A: > 1020 nM

Q: And the AUC [6, 10]?
A: 0.99

Q: And the IC50 [6, 10]?
A: > 10000 nM

Q: What about the AUC [7] of the same cell line?
A: 0.617

Q: And the IC50 [7]?
A: 2530 nM

Q: And the AUC [8]?
A: 0.462

Q: What about the IC50 [8] of the same cell line?
A: 12.7 nM

Q: “LK-2 (lung squamous cell carcinoma, adherent)” was tested. Which AUC [1] did it give?
A: 0.726

Q: What about the IC50 [1] of the same cell line?
A: 1310 nM

Q: And the AUC [2]?
A: 0.88

Q: What about the IC50 [2] of the same cell line?
A: 962 nM

Q: And the AUC [3]?
A: 0.948

Q: And the IC50 [3]?
A: > 10200 nM

Q: What about the AUC [4] of the same cell line?
A: 0.983

Q: And the IC50 [4]?
A: > 20000 nM

Q: What about the AUC [5] of the same cell line?
A: 0.978

Q: And the IC50 [5]?
A: > 16000 nM

Q: And the AUC [6, 9]?
A: 0.989

Q: And the IC50 [6, 9]?
A: > 1020 nM

Q: What about the AUC [6, 10] of the same cell line?
A: 0.984

Q: And the IC50 [6, 10]?
A: > 10000 nM

Q: What about the AUC [7] of the same cell line?
A: 0.917

Q: What about the IC50 [7] of the same cell line?
A: > 20000 nM

Q: What about the AUC [8] of the same cell line?
A: 0.787

Q: What about the IC50 [8] of the same cell line?
A: 105 nM

Q: How did the AUC [1] turn out when “LU-99A (large cell lung carcinoma, adherent)” was run?
A: 0.46

Q: What about the IC50 [1] of the same cell line?
A: 243 nM

Q: What about the AUC [2] of the same cell line?
A: 0.884

Q: What about the IC50 [2] of the same cell line?
A: > 1020 nM

Q: And the AUC [3]?
A: 0.98

Q: What about the IC50 [3] of the same cell line?
A: > 10200 nM

Q: What about the AUC [4] of the same cell line?
A: 0.983

Q: And the IC50 [4]?
A: > 20000 nM

Q: And the AUC [5]?
A: 0.975

Q: What about the IC50 [5] of the same cell line?
A: > 16000 nM

Q: What about the AUC [6, 9] of the same cell line?
A: 0.987

Q: What about the IC50 [6, 9] of the same cell line?
A: > 1020 nM

Q: What about the AUC [6, 10] of the same cell line?
A: 0.978

Q: What about the IC50 [6, 10] of the same cell line?
A: > 10000 nM

Q: And the AUC [7]?
A: 0.939

Q: What about the IC50 [7] of the same cell line?
A: > 20000 nM

Q: What about the AUC [8] of the same cell line?
A: 0.622

Q: What about the IC50 [8] of the same cell line?
A: 34.6 nM

Q: Which results are given for MDA-MB-175-VII (breast, adherent)?
A: AUC [1]: 0.571; IC50 [1]: 498 nM; AUC [2]: 0.885; IC50 [2]: > 1020 nM; AUC [3]: 0.983; IC50 [3]: > 10200 nM; AUC [4]: 0.986; IC50 [4]: > 20000 nM; AUC [5]: 0.977; IC50 [5]: > 16000 nM; AUC [6, 9]: 0.986; IC50 [6, 9]: > 1020 nM; AUC [6, 10]: 0.986; IC50 [6, 10]: > 10000 nM; AUC [7]: 0.93; IC50 [7]: > 20000 nM; AUC [8]: 0.848; IC50 [8]: 221 nM

Q: With MDA-MB-436 (breast, adherent) as the cell line, how does the AUC [1] read?
A: 0.548

Q: And the IC50 [1]?
A: 438 nM

Q: And the AUC [2]?
A: 0.813

Q: What about the IC50 [2] of the same cell line?
A: 740 nM

Q: And the AUC [3]?
A: 0.98

Q: What about the IC50 [3] of the same cell line?
A: > 10200 nM

Q: What about the AUC [4] of the same cell line?
A: 0.946

Q: And the IC50 [4]?
A: > 20000 nM

Q: What about the AUC [5] of the same cell line?
A: 0.957

Q: What about the IC50 [5] of the same cell line?
A: > 16000 nM

Q: And the AUC [6, 9]?
A: 0.983

Q: What about the IC50 [6, 9] of the same cell line?
A: > 1020 nM

Q: And the AUC [6, 10]?
A: 0.959

Q: What about the IC50 [6, 10] of the same cell line?
A: > 10000 nM

Q: What about the AUC [7] of the same cell line?
A: 0.946

Q: What about the IC50 [7] of the same cell line?
A: > 20000 nM

Q: And the AUC [8]?
A: 0.786

Q: What about the IC50 [8] of the same cell line?
A: 142 nM

Q: For MFE-319 (endometrium, adherent), which AUC [1] is on record?
A: 0.614

Q: And the IC50 [1]?
A: 638 nM

Q: And the AUC [2]?
A: 0.565

Q: And the IC50 [2]?
A: 95.6 nM

Q: What about the AUC [3] of the same cell line?
A: 0.967

Q: And the IC50 [3]?
A: > 10200 nM

Q: What about the AUC [4] of the same cell line?
A: 0.978

Q: And the IC50 [4]?
A: > 20000 nM

Q: What about the AUC [5] of the same cell line?
A: 0.979

Q: And the IC50 [5]?
A: > 16000 nM

Q: And the AUC [6, 9]?
A: 0.985

Q: What about the IC50 [6, 9] of the same cell line?
A: > 1020 nM

Q: What about the AUC [6, 10] of the same cell line?
A: 0.987

Q: What about the IC50 [6, 10] of the same cell line?
A: > 10000 nM

Q: And the AUC [7]?
A: 0.885

Q: What about the IC50 [7] of the same cell line?
A: > 20000 nM

Q: What about the AUC [8] of the same cell line?
A: 0.567

Q: What about the IC50 [8] of the same cell line?
A: 24.3 nM

Q: With MKN1 (stomach, adherent) as the cell line, how does the AUC [1] read?
A: 0.587

Q: What about the IC50 [1] of the same cell line?
A: 549 nM

Q: What about the AUC [2] of the same cell line?
A: 0.416

Q: What about the IC50 [2] of the same cell line?
A: 37.3 nM

Q: What about the AUC [3] of the same cell line?
A: 0.975

Q: What about the IC50 [3] of the same cell line?
A: > 10200 nM

Q: And the AUC [4]?
A: 0.977

Q: What about the IC50 [4] of the same cell line?
A: > 20000 nM

Q: And the AUC [5]?
A: 0.982

Q: And the IC50 [5]?
A: > 16000 nM

Q: What about the AUC [6, 9] of the same cell line?
A: 0.986

Q: What about the IC50 [6, 9] of the same cell line?
A: > 1020 nM

Q: And the AUC [6, 10]?
A: 0.973

Q: What about the IC50 [6, 10] of the same cell line?
A: > 10000 nM

Q: And the AUC [7]?
A: 0.943

Q: What about the IC50 [7] of the same cell line?
A: > 20000 nM

Q: And the AUC [8]?
A: 0.645

Q: And the IC50 [8]?
A: 41.1 nM
